# Measured values reported in patent US20200179511A1 (Novartis, published 2020).
# B1: BCMA×CD3 bispecific antibody BQ76 (bispecific antibody, human IgG1, kappa)
# heavy: [here about 100 residues without letters]VAPYFAPFDYWGQGTLVTVSSASTKGPSVFPLAPSSKSTSGGTAALGCLVKDYFPEPVTVSWNSGALTSGVHTFPAVLQSSGLYSLSSVVTVPSSSLGTQTYICNVNHKPSNTKVDKRVEPKSCDKTHTCPPCPAPELLGGPSVFLFPPKPKDTLMISRTPEVTCVVVDVSHEDPEVKFNWYVDGVEVHNAKTKPREEQYASTYRVVSVLTVLHQDWLNGKEYKCKVSNKALPAPIEKTISKAKGQPREPQVCTLPPSREEMTKNQVSLSCAVKGFYPSDIAVEWESNGQPENNYKTTPPVLDSDGSFFLVSKLTVDKSRWQQGNVFSCSVMHEALHNHYTQKSLSLSPGK
# light: [here about 100 residues without letters][here about 120 residues without letters]
# chain: EVQLVESGGGLVQPGGSLKLSCAASGFTFNTYAMNWVRQASGKGLEWVGRIRSKYNNYATYYADSVKDRFTISRDDSKSTLYLQMNSLKTEDTAVYYCVRHGNFGNSYVSWFAYWGQGTLVTVSSGGGGSGGGGSGGGGSGGGGSQAVVTQEPSLTVSPGGTVTLTCRSSTGAVTTSNYANWVQQKPGQAPRGLIGGTNKRAPWTPARFSGSLLGDKAALTLSGAQPEDEAEYFCALWYSNLWVFGGGTKLTVLGGGGS[here human IgG1 Fc with changes without letters]
# Biological target: T1, human BCMA (B-cell maturation antigen) (human, UniProt Q02223 1-184)
# T1 sequence (looked up): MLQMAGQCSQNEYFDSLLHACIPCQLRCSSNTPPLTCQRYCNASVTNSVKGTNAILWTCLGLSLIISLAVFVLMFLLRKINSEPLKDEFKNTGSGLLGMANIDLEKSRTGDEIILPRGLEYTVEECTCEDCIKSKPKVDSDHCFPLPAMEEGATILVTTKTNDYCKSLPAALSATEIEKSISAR
# Assay: cell-based or functional assay
binder,measurement,value
B1,fold enhancement of RTCC EC50 upon GSI treatment,≥ 10 fold
